This is one part of the list. The energies were worked out here from pooled read counts, against the library average; single values are noisy.
biological target: T1, Pho4 (S. cerevisiae) (UniProt P07270); experiment: relative binding free energy (BET-seq); higher = weaker binding; settings: reference: library average
T1 sequence: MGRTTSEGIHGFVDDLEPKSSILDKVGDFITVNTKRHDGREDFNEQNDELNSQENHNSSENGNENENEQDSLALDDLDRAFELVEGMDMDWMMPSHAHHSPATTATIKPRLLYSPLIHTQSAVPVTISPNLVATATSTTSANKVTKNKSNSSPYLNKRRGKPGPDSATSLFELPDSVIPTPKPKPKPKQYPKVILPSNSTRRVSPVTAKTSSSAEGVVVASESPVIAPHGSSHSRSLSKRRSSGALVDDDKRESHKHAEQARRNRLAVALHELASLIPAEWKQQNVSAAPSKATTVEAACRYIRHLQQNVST

Row | Sequence | relative binding free energy
1 | GAAGTCACGTGGGTAG | 0.12 kcal/mol
2 | TGCATCACGTGTGGCT | 0.17 kcal/mol
3 | AAGTACACGTGTCGTT | 0.16 kcal/mol
4 | AAGGGCACGTGGGGGC | -0.16 kcal/mol
5 | CTTGACACGTGGTGAG | 0.06 kcal/mol
6 | AGGGTCACGTGTAACG | 0.1 kcal/mol
7 | AGAGACACGTGAGGGT | 0.11 kcal/mol
8 | AGTGCCACGTGGGGTC | -0.41 kcal/mol
9 | GTTAACACGTGATGGA | 0.08 kcal/mol
10 | TGTACCACGTGTGAAT | 0.19 kcal/mol
11 | AGGCTCACGTGGATGA | 0.34 kcal/mol
12 | GGCAACACGTGGTGTG | 0.02 kcal/mol
13 | TCGTACACGTGCGGGT | 0.03 kcal/mol
14 | GAGTGCACGTGTGTAT | -0.03 kcal/mol
15 | TATACCACGTGTTTGT | -0.02 kcal/mol
16 | GGGAACACGTGGTTAG | 0.07 kcal/mol
17 | GGGGTCACGTGCGTAT | -0.05 kcal/mol
18 | GGTACCACGTGGTTTT | 0.13 kcal/mol
19 | TGTTGCACGTGGCCGG | -0.18 kcal/mol
20 | GGTGTCACGTGGCGTC | -0.15 kcal/mol
21 | AGTAGCACGTGCGTAT | -0.17 kcal/mol
22 | AAAGGCACGTGAAGAT | 0.18 kcal/mol
23 | TATTGCACGTGTCTGT | 0.02 kcal/mol
24 | TCGGGCACGTGATGGT | 0.12 kcal/mol
25 | CGGTTCACGTGTAATT | 0.26 kcal/mol

Row | Sequence | relative binding free energy
26 | TTCGCCACGTGGGTTT | -0.08 kcal/mol
27 | TGAGGCACGTGATTGT | -0.04 kcal/mol
28 | ATCGTCACGTGTGGTT | 0.06 kcal/mol
29 | CAGTGCACGTGGGTTG | -0.12 kcal/mol
30 | GGGATCACGTGATTAA | 0.41 kcal/mol
31 | ATAGTCACGTGGATAT | 0.08 kcal/mol
32 | GCGGGCACGTGCTGTG | -0.08 kcal/mol
33 | GTATTCACGTGCATTT | 0.37 kcal/mol
34 | TGCTACACGTGTTAAG | 0.25 kcal/mol
35 | TGCTGCACGTGTAAGT | 0.15 kcal/mol
36 | GTTGACACGTGGTAGG | 0 kcal/mol
37 | TAAAACACGTGTGGTT | 0.2 kcal/mol
38 | TATGTCACGTGGGGCT | -0.02 kcal/mol
39 | GTATTCACGTGCTTAT | 0.23 kcal/mol
40 | CGTTGCACGTGATTGT | 0.04 kcal/mol
41 | CTATGCACGTGATTGT | 0 kcal/mol
42 | TTAAACACGTGTTTTT | 0.03 kcal/mol
43 | AGTGGCACGTGGTGGG | -0.08 kcal/mol
44 | ATTCTCACGTGTTCGT | 0.18 kcal/mol
45 | AAAGGCACGTGTAAGT | 0 kcal/mol
46 | TATGACACGTGAAAGT | 0.32 kcal/mol
47 | CGTAGCACGTGTGGGC | -0.09 kcal/mol
48 | ATTGACACGTGTGGTG | -0.03 kcal/mol
49 | CGGGGCACGTGGCGTG | -0.17 kcal/mol
50 | GGGGTCACGTGGTGCT | 0.18 kcal/mol

Row | Sequence | relative binding free energy
51 | TGTTGCACGTGTGGAC | -0.02 kcal/mol
52 | GGTTACACGTGTGAGA | 0.27 kcal/mol
53 | AAGTGCACGTGACGTG | 0.18 kcal/mol
54 | TCTATCACGTGGGAAG | 0.15 kcal/mol
55 | ATTGGCACGTGTAGCG | -0.03 kcal/mol
56 | AGTTCCACGTGGGGGC | -0.07 kcal/mol
57 | AGTCGCACGTGGATGG | -0.04 kcal/mol
58 | TGGTCCACGTGCATGT | 0.03 kcal/mol
59 | GGAGGCACGTGCATGG | -0.15 kcal/mol
60 | TAGGACACGTGTTGTA | 0.07 kcal/mol
61 | TATAGCACGTGGCTTG | -0.21 kcal/mol
62 | TTTGACACGTGGCTAT | -0.1 kcal/mol
63 | GATGGCACGTGATCTG | 0.09 kcal/mol
64 | GATTTCACGTGTTTAA | 0.2 kcal/mol
65 | GGTTTCACGTGACTTA | 0.38 kcal/mol
66 | TGCGTCACGTGCTGTT | -0.04 kcal/mol
67 | TTTCGCACGTGGTTTC | -0.14 kcal/mol
68 | ATAAGCACGTGAGGGG | 0.21 kcal/mol
69 | TGGGTCACGTGTATCA | 0.12 kcal/mol
70 | AGGTGCACGTGTAAGA | -0.03 kcal/mol
71 | CGATGCACGTGAGTGG | 0.18 kcal/mol
72 | CTATTCACGTGGAATG | 0.35 kcal/mol
73 | GGGCTCACGTGAAAGT | 0.5 kcal/mol
74 | TGCTGCACGTGGGGCG | -0.19 kcal/mol
75 | AAAGTCACGTGTGCGG | -0.01 kcal/mol

Row | Sequence | relative binding free energy
76 | TGATACACGTGTGTAT | -0.04 kcal/mol
77 | AGTCGCACGTGTTGAG | -0.04 kcal/mol
78 | TACTACACGTGGGGGA | 0.07 kcal/mol
79 | CGTTTCACGTGGGGGC | 0.22 kcal/mol
80 | TTCATCACGTGGATAG | 0.15 kcal/mol
81 | GGGCTCACGTGGCATG | 0.33 kcal/mol
82 | ATTGGCACGTGTGGGT | -0.03 kcal/mol
83 | ATATGCACGTGAAGTT | 0.2 kcal/mol
84 | AGTGTCACGTGTGGTG | 0.14 kcal/mol
85 | GTTTGCACGTGATTAT | 0.17 kcal/mol
86 | ATTTACACGTGGTGGT | 0.01 kcal/mol
87 | TGTGTCACGTGTTAGC | 0.08 kcal/mol
88 | TTCGGCACGTGTCGTG | -0.05 kcal/mol
89 | GGTTTCACGTGAATCG | 0.54 kcal/mol
90 | CGGTACACGTGGTGAG | 0.03 kcal/mol
91 | AAAGCCACGTGAGGTT | 0.2 kcal/mol
92 | TTTAGCACGTGTTGAT | -0.1 kcal/mol
93 | AGTATCACGTGCTTAG | 0.1 kcal/mol
94 | ATTAGCACGTGTAGCT | 0.04 kcal/mol
95 | CTCTTCACGTGTTTGT | 0.14 kcal/mol
96 | TCAAGCACGTGGGTAG | -0.18 kcal/mol
97 | TTCGGCACGTGAAGTG | 0.18 kcal/mol
98 | TGTTTCACGTGCCGGC | 0.28 kcal/mol
99 | TTTTACACGTGATAGA | 0.1 kcal/mol
100 | TTAGTCACGTGTCAAT | 0.08 kcal/mol

Row | Sequence | relative binding free energy
101 | GGAGTCACGTGGGTTT | 0.06 kcal/mol
102 | TGCTTCACGTGTGGTA | 0.2 kcal/mol
103 | GAGTGCACGTGGGTCA | -0.2 kcal/mol
104 | CGTGTCACGTGTTCAG | 0.06 kcal/mol
105 | CGGTCCACGTGGAGGG | 0.02 kcal/mol
106 | GGGTACACGTGATGAG | 0.26 kcal/mol
107 | GGTTGCACGTGTCTTG | 0.11 kcal/mol
108 | TGTGCCACGTGTTTCG | -0.06 kcal/mol
109 | TGCTTCACGTGTGAAT | 0.39 kcal/mol
110 | GGGCGCACGTGAGGTT | 0.05 kcal/mol
111 | GTGGTCACGTGCAGAG | 0.01 kcal/mol
112 | TTGAGCACGTGTTGAG | -0.26 kcal/mol
113 | TTAGACACGTGTCATG | 0.04 kcal/mol
114 | TTGCACACGTGGCTTT | 0 kcal/mol
115 | GATAGCACGTGTAGGG | -0.03 kcal/mol
116 | GTTTTCACGTGGGACT | 0.28 kcal/mol
117 | TTAGTCACGTGAGATT | 0.31 kcal/mol
118 | CTGGTCACGTGGTGTG | -0.06 kcal/mol
119 | AATTTCACGTGAGTAT | 0.44 kcal/mol
120 | TGCAGCACGTGGGTCG | -0.29 kcal/mol
121 | TTGGTCACGTGCCATG | 0.07 kcal/mol
122 | GTTTGCACGTGTAGAT | 0.31 kcal/mol
123 | TGTTACACGTGCCTGG | 0 kcal/mol
124 | TGTAGCACGTGAAGGT | 0.16 kcal/mol
125 | ATTTTCACGTGCTTCG | 0.23 kcal/mol

Row | Sequence | relative binding free energy
126 | CACGACACGTGGGGGG | -0.3 kcal/mol
127 | TGGGGCACGTGGATGC | -0.07 kcal/mol
128 | GTAAGCACGTGGGAGG | -0.03 kcal/mol
129 | AGGATCACGTGGCTTG | 0.04 kcal/mol
130 | TATGGCACGTGAAAGA | 0.21 kcal/mol
131 | GAAGGCACGTGCGTGG | -0.17 kcal/mol
132 | TCTTTCACGTGGGATT | 0.31 kcal/mol
133 | ATAGGCACGTGGGAGG | -0.22 kcal/mol
134 | TTGTGCACGTGTTAGC | 0.2 kcal/mol
135 | TGTATCACGTGGTGGC | 0.17 kcal/mol
136 | GGTTGCACGTGGAAGC | -0.05 kcal/mol
137 | TTGAACACGTGCGTGG | 0 kcal/mol
138 | AAGAGCACGTGGGTAT | -0.21 kcal/mol
139 | GTGATCACGTGATGAT | 0.15 kcal/mol
140 | ATGTGCACGTGGGACA | -0.19 kcal/mol
141 | TCGGTCACGTGTGGTT | 0.12 kcal/mol
142 | GTGCACACGTGGTAGG | 0 kcal/mol
143 | AAGAACACGTGTTAGG | 0.03 kcal/mol
144 | TTTGTCACGTGAATGG | 0.33 kcal/mol
145 | TTTCACACGTGGGGTA | -0.11 kcal/mol
146 | AGGGACACGTGGTAAT | 0.02 kcal/mol
